In PubChem BioAssay AID1347073 (National Center for Advancing Translational Sciences (NCATS), 2019):
Out of some 45,000 compounds screened, about 200 (0.44%) were called active. Another 7% or so got no clear call; they are omitted. Calls follow the shape of the dose curve; as a rule, active = well fitted activation curve with a large enough effect; inconclusive = small, poorly fitted or top-dose-only effect; inactive = no such curve, though single readings can be large or run the other way. Some of the results follow.

Assay: qHTS of TDP-43 Inhibitors: NCGC Sytravon Library Screen; also: 0% is about no effect; nearly all actives have a fitted effect of over 55% in size
Conditions: yeast TDP-43 toxicity rescue, BacTiter-Glo growth, 24 h; series mostly up to 46.1 µM; growth rescue (activation): at the top concentration
Outline: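 TDP-43-expressing yeast, pregrown in raffinose, seeded at OD600 0.02 in galactose medium with compound for 24 hr at 30 deg C. Growth read by BacTiter-Glo luminescence, so rescue of toxicity appears as activation.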

Row | Compound | growth rescue (activation)
1 | O=C(c1ccccc1)N1CCN(S(=O)(=O)N2CCCCCC2)CC1 | inactive: -6.09%
2 | Cc1ccc(/C=C/C(=O)Nc2ccc(S(=O)(=O)Nc3cc(C)nc(C)n3)cc2)cc1 | inactive: 9.24%
3 | O=C(CN(C(=O)c1csnn1)c1ccc(F)c(Cl)c1)NCc1ccc2c(c1)OCO2 | inactive: -5.67%
4 | O=C(Nc1ccc(S(=O)(=O)Nc2ncccn2)cc1)c1cccnc1 | inactive: 13%
5 | CCN(CC)CCCNc1cc2n(c(=O)n1)CCc1cc(OC)c(OC)cc1-2 | inactive: -8.56%
6 | O=Cc1ccccc1OS(=O)(=O)c1ccccc1 | inactive: -33.6%
7 | Cn1nc(C(=O)Nc2cccc(S(N)(=O)=O)c2)c2ccccc2c1=O | inactive: -9.16%
8 | Cc1cc(Br)ccc1NC(=O)CN1C(=O)c2cccnc2Sc2ccccc21 | inactive: 11%
9 | Cc1ccc(C)c(N(C(=O)CNC(=O)c2ccco2)C(C(=O)NCC2CCCO2)c2ccccc2)c1 (centres undefined) | inactive: -5.1%
10 | COc1ccc(CN2CCN(C(=O)c3ccc4c(c3)CCC4)CC2)cc1OC | inactive: 8.71%
11 | Cc1ccc(Cl)cc1NC(=O)COC(=O)CSc1ccccc1 | inactive: 2.08%
12 | CC(=O)N1CCCC(C)(C(=O)Nc2ccc3nc(C)ccc3c2)C1 (centres undefined) | inactive: 5.61%
13 | CC(=O)Nc1ccc(CNc2nc3cc(-c4cccc(C(F)(F)F)c4)sc3c(=O)n2C)cc1 | inactive: 6.33%
14 | OCC1(Cc2cccc(Cl)c2)CCCN(Cc2ccc3cc(F)ccc3n2)C1 (centres undefined) | inactive: 13.1%
15 | O=C(O)c1cccc(C(=O)c2cccc(C(=O)O)c2)c1 | inactive: 4.76%
16 | COCCSc1nnc(NC(=O)c2ccc(NC(C)=O)cc2)s1 | inactive: 13.8%
17 | COc1cc(/C=C/C(=O)OCC(=O)Nc2cc(C(F)(F)F)ccc2N2CCOCC2)ccc1O | inactive: 16%
18 | C[C@]12CC[C@H](OC(=O)CCC(=O)O)CC1=CCC1C2CC[C@@]2(C)C1CC[C@@H]2N (some centres undefined) | inactive: -23.5%
19 | CC(C)c1ccccc1OCC(=O)Nc1ccccc1C(=O)N1CCOCC1 | inactive: 10.6%
20 | CC(=O)Oc1cccc(N2C(=O)c3ccc(C(=O)Nc4c[nH]c(=O)[nH]c4=O)cc3C2=O)c1 | inactive: 0.403%
21 | Cc1ccc(NC(=O)C2CCN(S(=O)(=O)c3cccs3)CC2)cc1 | inactive: 24.5%
22 | O=C(N/N=C/C1CC=CCC1)c1cc(Br)ccc1O (centres undefined) | inactive: -4.54%
23 | CC1(C(=O)Nc2cnc3ccccc3c2)CCN1Cc1ccccc1OC(F)F (centres undefined) | inactive: 15.5%
24 | Cc1nn(CC(=O)Nc2ccc(N3CCOCC3)cc2)c(C)c1[N+](=O)[O-] | inactive: 11.2%
25 | Cc1nc(NC(=O)C(Cl)Cl)sc1C(=O)N(C)C | inactive: 5.91%
26 | O=C(Nc1ccc(Br)cc1)c1ccc(F)c(S(=O)(=O)N2CCN(c3ccccn3)CC2)c1 | inactive: -8.81%

Row | Compound | growth rescue (activation)
27 | C/C(=N\NC(=S)NCc1ccccc1)c1ccccc1F | inactive: 31.7%
28 | Cc1cccc(OCC(=O)Nc2ccc(N3CCN(C(=O)c4ccco4)CC3)cc2)c1C | inactive: 20%
29 | Cc1cccc(/C(N)=N/OC(=O)C23CC4CC(CC(C4)C2)C3)c1 | inactive: -52.5%
30 | O=C(O)c1cccc(NC(=O)c2cc(S(=O)(=O)N3CCOCC3)cs2)c1 | inactive: -20.2%
31 | CC1(C)CC(NC(=O)COc2ccc([N+](=O)[O-])cc2)CC(C)(C)N1 | inactive: 9.34%
32 | COc1ccc(NC(=O)c2ccccn2)cc1S(=O)(=O)N1CCOCC1 | inactive: -10.6%
33 | COc1ccc(/C=C2\SC(=S)N(CCC(=O)N3CCCCC3)C2=O)cc1 | inactive: 16.7%
34 | COc1cccc(NC(=O)COc2cccnc2[N+](=O)[O-])c1 | inactive: -5.85%
35 | Cc1c(Cl)c([N+](=O)[O-])nn1CC(=O)N1CCN(Cc2ccccc2)CC1 | inactive: 1.63%
36 | O=C(Nc1ccc(NC(=O)c2ccccc2Cl)cc1)c1cccnc1 | inactive: 3.47%
37 | Cc1[nH]c(=S)c(C#N)c2c1CCCC2 | inactive: -17.4%
38 | COc1cc(CNCc2ccccn2)ccc1OCc1ccccc1Cl | inactive: -3.99%
39 | CC1CCCN(CC(O)COC(c2ccccc2)c2ccccc2)C1 (centres undefined) | inactive: -1.51%
40 | CC(NC(=O)CNC(=O)c1ccco1)c1ccc(S(N)(=O)=O)cc1 (centres undefined) | inactive: -14%
41 | CCC1(c2ccc(F)cc2)NC(=O)NC1=O (centres undefined) | inactive: 5.3%
42 | CCc1c(C(=O)N/N=C/c2sccc2C)nnn1-c1nonc1N | inactive: -8.36%
43 | O=C(NC1=NCCS1)c1ccc(N2CCCC2=O)cc1 | inactive: 3.95%
44 | Cc1nc2c(Cl)c(C)nn2c2c1CCC2 | inactive: 30%
45 | Cc1ccccc1S(=O)(=O)NC(=O)C1(C)CCN1C(=O)Cc1ccc(C(C)(C)C)cc1 (centres undefined) | inactive: 16.5%
46 | CN(C)/N=C/c1ccc(/C=N/NC(N)=S)o1 | inactive: 9.43%
47 | Cc1nn(C)c(C)c1Nc1ccc(N2C(=O)C3CC=CCC3C2=O)cc1[N+](=O)[O-] (centres undefined) | inactive: 8.31%
48 | NS(=O)(=O)c1ccc(CCNC(=O)c2ccc(Br)s2)cc1 | inactive: -21.4%
49 | Cc1cc(/C=C2\NC(=O)NC2=O)c(C)n1-c1cccnc1 | inactive: 2.44%
50 | COc1ccc(-c2nc(CN3CCCCC3CCc3ccccn3)c(C)o2)cc1 (centres undefined) | inactive: 9.79%
51 | Cc1ccc(S(=O)(=O)N2CCCN(C)CC2)cc1 | inactive: 7.5%
52 | CCOc1ccc(N2C(=O)C3C(c4ccc(OC)cc4OC)NC(CCSC)(C(=O)OC)C3C2=O)cc1 (centres undefined) | inactive: 8.16%

Row | Compound | growth rescue (activation)
53 | CCOc1cc2c(cc1OC)C(c1cccc([N+](=O)[O-])c1)NCC2 (centres undefined) | inactive: -4.12%
54 | CCCCNS(=O)(=O)c1cccc(NC(=O)[C@@H]2O[C@H](CO)[C@H](O)[C@H](O)[C@H]2O)c1 | inactive: -10.4%
55 | CSc1ccc(CCNC(=O)CN2C(=O)CCSc3ccccc32)cc1 | inactive: 0.762%
56 | O=C(N/N=C/c1ccncc1)c1cc(C2CC2)nc2ccccc12 | inactive: 2.53%
57 | O=C(N/C(=C\c1cccnc1)C(=O)N1CCCCC1)c1cccc(Br)c1 | inactive: 14.5%
58 | Clc1ccc(-c2cn(-c3ccccc3)c3[n+]2CCS3)cc1 | inactive: -3.86%
59 | NC(=O)c1ccccc1NC(=O)COc1ccc2c(c1)OCO2 | inactive: -13.8%
60 | O=C(CCC1CCCN(C(=O)c2ccoc2)C1)NCc1ccc(F)c(F)c1 (centres undefined) | inactive: 5.09%
61 | CN(C)S(=O)(=O)c1cccc(-c2nn(-c3ccccc3)cc2/C=C2\SC(=S)NC2=O)c1 | inactive: 20.8%
62 | COc1cc(/C=N/NC(=O)c2cccc(S(=O)(=O)N3CCOCC3)c2)cc(OC)c1O | inactive: 0.133%
63 | COc1ccc(N(CC(=O)NCCSCc2ccco2)S(=O)(=O)c2ccccc2)cc1 | inactive: 5.09%
64 | O=C(COC(=O)C1C2CC3OC(=O)C1C3C2)Nc1ccc(Cl)cc1 (centres undefined) | inactive: 4.26%
65 | O=C(CC(=O)NC1CCCCC1)N/N=C/c1ccc(Cl)cc1 | inactive: -6.23%
66 | CCCCN(C(=O)c1cc2c(s1)CCC2)c1c(N)n(CCC)c(=O)[nH]c1=O | inactive: 23%
67 | CCC(C(=O)NCCCN(CC)CC)n1ncn2c(cc3occc32)c1=O (centres undefined) | inactive: 0.578%
68 | C/C(=N\N(Cc1ccccc1)c1ccccc1)c1ccncc1 | inactive: 6.47%
69 | COc1ccc(CN2CCC(N3CC(C)OC(C)C3)CC2)c(OC)c1 (centres undefined) | inactive: -23.4%
70 | CCN(CC(=O)NCc1ccncc1)S(=O)(=O)c1ccc(OC)cc1 | inactive: 10.6%
71 | CC(C)C[C@H](NC(=O)C1CCC(CNC(=O)[C@@H]2CCCN2C(=O)OC(C)(C)C)CC1)C(=O)O (some centres undefined) | inactive: 3.62%
72 | COc1ccc(CCC(=O)OCc2csc(CC(=O)Nc3ccc(C)cc3)n2)cc1OC | inactive: 6.59%
73 | CC1(C(=O)Nc2ccc3[nH]ncc3c2)CCN1C(=O)CCc1ccccc1 (centres undefined) | inactive: 8.72%
74 | CSc1nsc(SCC(=O)Nc2ccc(F)cc2)n1 | inactive: -1.7%
75 | NC(=O)CSc1nnc(-c2ccccc2F)n1C1CC1 | inactive: 5.34%
76 | COc1cccc(C(NC(C)=O)c2nc(-c3cnn(C)c3)cs2)c1 (centres undefined) | inactive: 23.1%
77 | COc1cc(CNc2ncnc3c2ncn3[C@H]2CN(Cc3ccc4c(c3)OCO4)C[C@@H](CO)O2)cc(OC)c1OC | inactive: 5.31%
78 | COc1cccc(-c2cc(NC(C)=O)c3ncc(-c4ccc(OC)c(OC)c4)n3c2)c1 | inactive: 16%

Row | Compound | growth rescue (activation)
79 | O=C(CSc1n[nH]c(-c2ccccc2)n1)N1CCOCC1 | inactive: -2.7%
80 | CC(=O)Nc1ccc(S(=O)(=O)n2nc(C)cc2C)cc1 | inactive: 8.04%
81 | O=C(c1cccc([N+](=O)[O-])c1)N1CCCC(C(=O)N2CCN(c3ccccc3)CC2)C1 (centres undefined) | inactive: 4.12%
82 | C/C(N)=C(/C#N)C(=O)COC(=O)C1CCN(S(=O)(=O)c2cccs2)CC1 | inactive: -3.72%
83 | O=C1CC(NNc2ccccc2)C(=O)N1c1ccccc1 (centres undefined) | inactive: -32.8%
84 | CC(C)C(NCC(=O)Nc1ccccc1C(=O)NC1CC1)c1ccccc1 (centres undefined) | inactive: -0.217%
85 | CC(C)CN(CC(C)C)S(=O)(=O)N1CCC(C(=O)NCc2ccco2)CC1 | inactive: -1.04%
86 | CCOc1cc(C(=O)Nc2ccc(S(=O)(=O)NC3=NCCCCC3)cc2)cc(OCC)c1OCC | inactive: -2.42%
87 | Cc1ccc(S(=O)(=O)N2CCC(C(=O)NC3CC3)CC2)cc1 | inactive: 3.09%
88 | CCN(CC)CCN(C)C(=O)c1ccc(OC2CCN(C(=O)C3CC3)CC2)cc1 | inactive: 1.45%
89 | CC(=O)c1cccc(NC(=S)N2CCN(S(=O)(=O)c3ccc(F)cc3)CC2)c1 | inactive: 6.9%
90 | Cc1ccsc1/C=C1/CN(C)Cc2c1nc1ccccc1c2C(=O)O | inactive: 21.9%
91 | CCOc1ccc(S(=O)(=O)N2CC(=O)Nc3ccccc32)cc1C#N | inactive: 9.24%
92 | CCCOc1ccc(/C(O)=C2/C(=O)C(=O)N(c3ccccn3)C2c2ccc(OC)cc2)cc1C (centres undefined) | inactive: -19%
93 | O=C(Nc1ccccc1)Nc1cc(S(=O)(=O)N2CCOCC2)ccc1N1CCCC1 | inactive: 18.1%
94 | O=C(CNC(=O)C1COc2ccccc2O1)N/N=C\c1cccc(O)c1 (centres undefined) | inactive: -8.28%
95 | Cc1cccnc1C(NC(=O)C1CCN(Cc2ccc(Cl)cc2)CC1)c1ccccc1 (centres undefined) | inactive: -1.62%
96 | CSc1ccccc1C(=O)C1CCCN(C(=O)CCc2cccnc2)C1 (centres undefined) | inactive: 7.66%
97 | OCCN1CCN(c2ncnc3c2ncn3[C@H]2CN(Cc3cccs3)C[C@@H](CO)O2)CC1 | inactive: -3.51%
98 | CCN(CC)S(=O)(=O)c1ccc(NCCc2ccccn2)nc1 | inactive: 9.1%
99 | Nn1c(SCc2cc([N+](=O)[O-])cc3c2OCOC3)nnc1-c1ccccn1 | inactive: 5.71%
100 | CN(Cc1ccc(C(F)(F)F)cc1)C(=O)C1CCC(=O)N(C2CC2)C1 (centres undefined) | inactive: 13.2%
101 | O=C(CSc1nnc(-c2ccccc2O)o1)N1CCOCC1 | inactive: -8.22%
102 | COc1cc(OC)cc(N(C(=O)CNC(=O)c2cccs2)C(C(=O)NCC2CCCO2)c2ccc(OC)c(OC)c2)c1 (centres undefined) | inactive: 10.1%
103 | O=C(CN1C(=O)NC2(CCCc3ccccc32)C1=O)NCCc1ccc(F)cc1 (centres undefined) | inactive: -2.74%
104 | COC(=O)C1=C(N)Oc2cc(C)n(CCCn3ccnc3)c(=O)c2C1c1ccc(Cl)cc1 (centres undefined) | inactive: -10.9%
